Results taken from PMC4336329 (PLoS ONE, 2015).
Out of some 310,000 compounds screened, about 14,000 (4.5%) showed an effect of 50% or more. Effects have a minus sign here. The list shows a part of the results.

Target: human ether-à-go-go-related gene (hERG) potassium channel (human, UniProt Q12809)
Assay: primary screen, population patch clamp on CHO cells stably expressing hERG
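Note: peak tail current of the secondary pulse compared with the same well before compound.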

Chain of human ether-à-go-go-related gene (hERG) potassium channel (Q12809 whole entry, looked up): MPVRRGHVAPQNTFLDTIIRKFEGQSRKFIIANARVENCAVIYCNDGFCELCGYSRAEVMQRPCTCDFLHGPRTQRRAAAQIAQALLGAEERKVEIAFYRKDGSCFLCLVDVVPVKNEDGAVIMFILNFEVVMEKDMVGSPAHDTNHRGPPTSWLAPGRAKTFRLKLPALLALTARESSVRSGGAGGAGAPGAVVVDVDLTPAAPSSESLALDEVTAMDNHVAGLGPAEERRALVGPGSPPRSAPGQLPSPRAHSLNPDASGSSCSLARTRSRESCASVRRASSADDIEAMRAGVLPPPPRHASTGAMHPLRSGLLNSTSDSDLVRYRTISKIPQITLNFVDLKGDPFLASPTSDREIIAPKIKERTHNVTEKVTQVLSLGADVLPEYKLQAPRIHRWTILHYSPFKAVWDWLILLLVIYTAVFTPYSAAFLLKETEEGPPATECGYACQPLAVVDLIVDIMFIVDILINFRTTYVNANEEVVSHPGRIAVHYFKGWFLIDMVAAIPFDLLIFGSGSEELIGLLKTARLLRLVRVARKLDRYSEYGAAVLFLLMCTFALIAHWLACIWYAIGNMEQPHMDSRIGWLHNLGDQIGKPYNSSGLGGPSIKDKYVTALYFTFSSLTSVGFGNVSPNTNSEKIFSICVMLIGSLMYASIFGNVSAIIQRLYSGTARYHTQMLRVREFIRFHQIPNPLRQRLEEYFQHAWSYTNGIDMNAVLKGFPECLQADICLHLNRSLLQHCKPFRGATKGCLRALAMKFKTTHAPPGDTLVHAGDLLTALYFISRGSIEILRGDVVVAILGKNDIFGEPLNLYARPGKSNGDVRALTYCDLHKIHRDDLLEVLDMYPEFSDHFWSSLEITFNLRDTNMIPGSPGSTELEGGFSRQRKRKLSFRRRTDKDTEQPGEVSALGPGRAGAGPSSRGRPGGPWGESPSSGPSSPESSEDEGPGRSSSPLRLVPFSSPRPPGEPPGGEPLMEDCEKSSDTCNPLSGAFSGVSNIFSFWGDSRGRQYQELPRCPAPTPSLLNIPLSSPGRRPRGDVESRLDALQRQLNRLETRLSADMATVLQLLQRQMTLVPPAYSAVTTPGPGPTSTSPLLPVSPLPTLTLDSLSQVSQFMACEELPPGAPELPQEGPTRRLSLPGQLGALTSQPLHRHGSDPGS

Row | SMILES | hERG current change (%, negative = inhibition) at 10uM
1 | Oc1ccc(N2CCN(Cc3c(-c4ccccc4)nc4ccccn34)CC2)cc1 | -9.23%
2 | COc1cc2c(cc1NC(=O)COC(=O)c1ccc(C(C)(C)C)cc1)oc1ccccc12 | 9.77%
3 | CCc1ccccc1NC(=O)CCc1nc(-c2cccs2)no1 | 2.79%
4 | CC(=O)Nc1ccc(NC(=O)C2CC(=O)N(C(C)C)C2)cc1 (stereo not shown) | 11%
5 | C[C@@H](C(=O)Nc1nc2ccccc2s1)N1C(=O)C2CC=CCC2C1=O (stereo partly shown) | -8.73%
6 | CCNC(=S)N1CCN(S(=O)(=O)/C=C/c2ccccc2)CC1 | -3.43%
7 | O=C(NCC(c1cccs1)N1CCOCC1)c1cccc([N+](=O)[O-])c1 (stereo not shown) | -7.91%
8 | COc1ccc(CCC(=O)NNC(=O)Cn2nc(C)cc2C)cc1 | 11.7%
9 | COc1nc(C)nc(Cl)c1NC1=NCCN1.Cl | 15.1%
10 | COc1ccc(S(=O)(=O)Cc2ccc(C(=O)N3CCN(c4ncccn4)CC3)o2)cc1 | -16.8%
11 | Cc1ccc(CNC(=O)Cn2cccc2)cc1 | 13.9%
12 | O=C(Nc1cccnc1)c1ccc(C(=O)Nc2cccnc2)cc1 | 29.7%
13 | Cc1c(C(=O)O)sc2nc(/C=C/c3cccc(O)c3)[nH]c(=O)c12 | 21.4%
14 | Cc1ccccc1-n1ncc2c1CC(C)(C)CC2NC(=O)c1snnc1C (stereo not shown) | -3.08%
15 | CC1CC(C)(C)CC2(C1)NC(=O)N(CC(=O)N(C)Cc1nc3ccccc3c(=O)[nH]1)C2=O (stereo not shown) | -22.8%
16 | Cc1nn(CC(=O)Nc2ccc(C#N)cc2)c(C)c1[N+](=O)[O-] | -25.2%
17 | COc1cccc(NC(=O)C2CC(=O)N(Cc3ccc(C)cc3)C2)c1 (stereo not shown) | -9.9%
18 | CCOC(=O)N1CCN(C(=O)Cn2nc(C)n3nc(-c4ccc(CC)cc4)cc3c2=O)CC1 | 7.23%
19 | O=C(CSc1cn[nH]n1)Nc1ccccc1C(F)(F)F | 8.13%
20 | COc1cccc(NC(=O)COC(=O)CCC2CCCC2)c1 | -4.57%
21 | COc1ccc(CNC(=O)c2cccc(S(=O)(=O)N3CCN(C)CC3)c2)cc1 | 16.2%
22 | COc1ccc(-n2cc(CNCCCN3CCCC3=O)c(-c3ccccc3Cl)n2)cc1 | -60.9%

Row | SMILES | hERG current change (%, negative = inhibition) at 10uM
23 | FC(F)(F)c1cc(-c2ccccc2)nc2ncnn12 | 7.8%
24 | Cc1ccc(NC(=O)CN(C)Cc2nc3c(Br)cc(Br)cc3c(=O)[nH]2)cc1 | -10.7%
25 | Cc1ccc(C(=O)Nc2ccc(Cl)cn2)cc1S(=O)(=O)N1CCOCC1 | -51.4%
26 | Cc1ccc(C)c(NC(=O)CN(C)C(=O)COc2cccc3c2OC(C)(C)C3)c1 | -24.4%
27 | Nc1c(-c2cccc(Cl)c2)cnn1-c1ccccc1 | -60.3%
28 | COc1ccccc1N1CCN(C(=O)NC23CC4CC(CC(C4)C2)C3)CC1 | 13.5%
29 | CC(=O)CC(=O)Nc1cccc2c1CCCC2 | 17.3%
30 | CC1CCN(Cc2nc3c(c(=O)n(C)c(=O)n3C)n2CCc2ccccc2)CC1 | -11.6%
31 | Cc1nccn1S(=O)(=O)c1ccc(Br)cc1Br | -3.62%
32 | CC(=O)c1ccccc1N(C(=O)c1ccco1)C(C(=O)NC1CCCC1)c1ccc(C)cc1 (stereo not shown) | 7.13%
33 | O=c1oc2ccccc2c(N2CCCCC2)c1CN1CCCCC1 | -18.4%
34 | O=C(CSc1nnc(CNc2ccc(F)cc2)n1CC1CCCO1)Nc1ccccc1 (stereo not shown) | -35.5%
35 | COc1cc(C(=O)NC(=S)N(CCc2ccccc2)CCc2ccccc2)cc(OC)c1OC | 0.172%
36 | Cc1ccc(CS(=O)Cc2ccc(C(=O)NCc3ccc(OC(C)C)cc3)o2)cc1 (stereo not shown) | 8.25%
37 | CC(C)N1CCN(C(=O)c2ccc([N+](=O)[O-])cc2)CC1 | -39.8%
38 | COc1ccc(C(C#N)Nc2ccc(C)cc2)cc1 (stereo not shown) | 5.72%
39 | CC(C)(C)/C=N/NC(=O)C1CC1 | 13.7%
40 | CCCC(=O)Nc1ncnc2c1ncn2[C@@H]1O[C@@H]2OP(=O)([O-])OC[C@H]2[C@H]1OC(=O)CCC.O.[Na+] | -2.82%
41 | O=C(Nc1cc(C(F)(F)F)ccc1Cl)c1cc(C2CC2)on1 | 10.3%
42 | CCN(C(=O)C1CCN(S(=O)(=O)c2cccc3nonc23)CC1)c1ccccc1 | -3.13%
43 | CSc1cccc(NC(=O)COc2ccccc2)c1 | -17.6%
